Measurements reported in PubChem BioAssay AID686978 (National Center for Advancing Translational Sciences (NCATS), 2013).
In all, about 420,000 compounds went through this assay and about 64,000 (15%) were called active. The inconclusive results got no clear call from the source; some entries with a clear call stand among them for comparison. The call rests on the fitted dose curve; in most records, active means well fitted inhibition curve with a large enough effect; inconclusive means small, poorly fitted or top-dose-only effect; inactive means flat fitted curve, though single readings scatter. No potency is given beside an inconclusive call; the fits are too rough.
On the % scale 0 is the no-effect control and ±100 the full control effect; potency means the concentration at half of the fitted maximal effect; tags describe the fitted curve by direction and shape.

Experiment: qHTS for Inhibitors of human tyrosyl-DNA phosphodiesterase 1 (TDP1): qHTS in cells in absence of CPT; further: nearly all actives have a fitted effect of over 55% in size
Details: DT40 Tdp1-/- hTDP1 cells, no CPT, ATP luminescence, 48 h; activity change, negative = growth inhibition: at 46.2 µM (top of the series) unless noted
Procedure, shortened: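 No-CPT arm: Tdp1-/-;hTDP1 DT40 cells (400/well) plus compounds, incubated ≥48 hr at 37 °C. Readout CellTiter-Glo luminescence.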
In the case of `COC(=O)C1=C(C)N(c2cc(Cl)cc(Cl)c2)C(=O)C1`, the Potency is reported as active: 8.2 µM. For `O=C1CCCC2=C1C1(CCCC1)N=C(Nc1nc3ccccc3s1)N2`, the Potency was inconclusive [inhibitor, full curve]. With `O=C(NCc1ccccc1)c1cccc(S(=O)(=O)NCc2ccccc2)c1` the Potency was inconclusive [inhibitor, partial curve]. For `Cn1c(N2CCN(C(=O)Nc3ccc(F)cc3)CC2)nc2ccccc21`, the Potency was “inactive”. With `COc1ccc(CCNC(=O)CSc2nnc(-c3ccccc3)c3ccccc23)cc1OC` the Potency was inconclusive [inhibitor, single point]. For `NC(=O)CC(NC(=O)c1ccc(Br)cc1)c1ccc(NC2CCCCC2)c([N+](=O)[O-])c1` (stereo not given), the Potency was active: 16.4 µM. In the case of `CCC(C)NC(=O)COc1ccccc1[N+](=O)[O-]` (stereo not given), the Potency is reported as “inactive”. With `O=[N+]([O-])c1ccccc1S(=O)(=O)N1CCCc2ccccc21` the Potency was inconclusive [inhibitor, single point]. With `COc1cccc(N2CC(NC(=O)c3ccc4c(c3)OCO4)CC2=O)c1` (stereo not given) the Potency was “inactive”. In the case of `COc1ccc(N(CC(=O)N/N=C/c2ccc(OC3CSC3)cc2)S(=O)(=O)c2ccccc2)cc1`, the Potency is reported as inconclusive [inhibitor, single point]. For `Cc1nc2nc(-c3ccc(Cl)cc3Cl)nn2c(C)c1CCC(=O)Nc1ccc(F)cc1`, the Potency was “inactive”. In the case of `O=C(N1CCOCC1)N1CCC(NC(=O)C23CC4CC(CC(C4)C2)C3)CC1`, the Potency is reported as “inactive”. In the case of `CCOc1ccc(S(=O)(=O)N(CC(=O)N2CCc3ccccc32)Cc2ccco2)cc1`, the Potency is reported as inconclusive [inhibitor, single point]. For `Cc1cccc(C)c1NC(=O)CCCCCNS(=O)(=O)c1ccccc1`, the Potency was inconclusive [inhibitor, single point]. For `Cc1nn2cc(-c3cccc(Cl)c3)cnc2c1Br`, the Potency was active: 5.8 µM. In the case of `COc1ccc(NC(=O)CN(C)C(=O)c2ccccc2OCC(=O)Nc2cccc(C(F)(F)F)c2)cc1`, the Potency is reported as inconclusive [inhibitor, full curve]. With `CC(=O)c1ccc(NC(=O)C2CCCN(S(=O)(=O)c3ccc4c(c3)CCCN4C(C)=O)C2)cc1` (stereo not given) the Potency was inconclusive [inhibitor, partial curve]. For `CCc1nnc(NC(=O)C2CCCN(S(=O)(=O)c3ccc(OC)cc3)C2)s1` (stereo not given), the Potency was inconclusive [inhibitor, single point]. For `CN(C)/C=N/c1c(C#N)cnn1-c1nc2ccccc2s1`, the activity change, negative = growth inhibition was inconclusive: -30.3% [inhibitor]. For `COc1cc(NC(=O)c2cc(CC(C)C)on2)c(OC)cc1Cl`, the Potency was inconclusive [inhibitor, partial curve].
